In all, about 410,000 compounds went through this assay and about 310 (0.076%) were called active. Inconclusive results, whose numbers are uncertain, are shown with a selection of clear calls. Calls follow the shape of the dose curve; as a rule, active = well fitted curve in the direction sought with a large enough effect; inconclusive = small, poorly fitted or top-dose-only effect; inactive = flat fitted curve, though single readings scatter. Potencies beside an inconclusive call are fits to weak or partial responses and may not hold up.
Each molecule was assayed against DNA dC->dU-editing enzyme APOBEC-3G (Homo sapiens) (UniProt Q9HC16) (assay: qHTS for Inhibitors of Vif-A3G Interactions: qHTS). Details: HeLa A3G-eYFP + Vif (tagged APOBEC3G with the HIV-1 protein that degrades it), YFP fluorescence, overnight; series mostly up to 46.1 µM.
Sequence of UniProt Q9HC16 (Q9HC16 whole entry, looked up): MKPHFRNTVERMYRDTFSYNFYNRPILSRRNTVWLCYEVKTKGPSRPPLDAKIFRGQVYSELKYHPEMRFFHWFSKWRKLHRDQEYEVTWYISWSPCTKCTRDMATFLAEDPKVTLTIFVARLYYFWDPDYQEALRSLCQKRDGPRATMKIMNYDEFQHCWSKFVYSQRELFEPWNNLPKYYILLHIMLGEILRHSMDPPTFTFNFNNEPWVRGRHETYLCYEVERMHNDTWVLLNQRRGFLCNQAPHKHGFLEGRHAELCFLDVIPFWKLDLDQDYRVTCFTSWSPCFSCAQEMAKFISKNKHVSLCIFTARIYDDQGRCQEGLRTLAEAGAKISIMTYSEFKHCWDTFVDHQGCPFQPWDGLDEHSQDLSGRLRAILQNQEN
Outline: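 HeLa cells stably expressing Vif and C-terminally eYFP-tagged A3G, seeded overnight at 37 deg C, then exposed to compound by pintool overnight at 37 deg C. Rise in yellow fluorescence (Ex 488/Em 500-530, Acumen) marks blocked Vif-driven A3G degradation.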
Also: nearly all actives have a fitted effect of over 60% in size.
Potency is read from the fitted curve at half-maximal effect; tags tell the direction and shape of the fitted curve.

Row | SMILES | Potency
1 | CCNc1nc(C#N)nc(N2CCOCC2)n1 | inactive
2 | COc1ccc2c(c1)C1C=CCC1C(c1cc3c(cc1Br)OCO3)N2 (stereo unspecified) | inconclusive: 10 µM [inhibitor, partial curve]
3 | Cc1ccc(CSc2c(C)cnc3c2c(=O)n(C)c(=O)n3C)cc1 | inactive
4 | COc1ccc2[nH]c(C(=O)N/N=C/c3ccccc3OC)cc2c1 | inconclusive: 7.94 µM [inhibitor, partial curve, poor fit]
5 | Cc1cc(N/N=C/c2ccc(O)cc2O)nc(-c2ccccc2O)n1 | inconclusive: 8.91 µM [inhibitor, partial curve, poor fit]
6 | O=C(CCn1c(=O)c2sccc2n(Cc2ccc(F)cc2)c1=O)NCc1ccc2c(c1)OCO2 | inconclusive: 35.5 µM [inhibitor, single point]
7 | O=C(CCCCCn1c(=S)[nH]c2cc3c(cc2c1=O)OCO3)N1CCN(C2CCCCC2)CC1 | inconclusive: 35.5 µM [inhibitor, single point]
8 | CCN(CC)CCCNc1nc2cc(OC)c(OC)cc2c2nc(-c3ccccc3)nn12 | inactive
9 | Cc1ccc(C(=O)NC(=C(Cl)Cl)S(=O)(=O)c2ccc(C)cc2)cc1 | inconclusive: 15.8 µM [inhibitor, single point]
10 | CCCCCCOc1ccc(/C=C/C(=O)Nc2sc3c(c2C(=O)OC)CCC3)cc1OC | inconclusive: 20 µM [inhibitor, single point]
11 | CC1=CC2=NC(=O)/C(=C/c3coc4ccc(Cl)cc4c3=O)C(=N)N2O1 | inconclusive: 22.4 µM [inhibitor, single point]
12 | CCCCCc1ccc(-c2cn(Cc3ccc(C(=O)c4ccccc4)cc3)nn2)cc1 | inconclusive: 2.82 µM [inhibitor, full curve, poor fit]
13 | Cc1ccc(NC(=O)Nc2cccc(Cl)c2)c(C(=O)O)c1 | inactive
14 | C=C(C(=O)c1ccccc1)C(C(=C)C(=O)c1ccccc1)c1ccc(OC)cc1 | inconclusive: 2.82 µM [inhibitor, full curve, poor fit]
15 | Cc1ccc2[nH]c3c(c2c1)CCCC3NC(=O)CCl (stereo unspecified) | inconclusive: 12.6 µM [inhibitor, partial curve]
16 | COC(=O)c1cccc(CN2C(=O)C(C)Sc3cc(Cl)ccc32)c1 (stereo unspecified) | inconclusive: 7.08 µM [inhibitor, partial curve, poor fit]
17 | COc1ccc(CNC(=O)c2cnc3sc(N4CCC(C)CC4)nn3c2=O)c(OC)c1 | inactive
18 | Fc1ccc(Br)cc1C1C=C(c2ccc(Br)s2)Nc2ncnn21 (stereo unspecified) | inconclusive: 28.2 µM [inhibitor, partial curve, poor fit]
19 | COc1cc(C=NNC(=O)c2ccccc2-n2cccc2)ccc1O | inconclusive: 25.1 µM [inhibitor, single point]

Row | SMILES | Potency
20 | Cc1cc(-c2ccccc2)n(-c2cc(N/N=C/c3ccccc3O)ncn2)n1 | inconclusive: 0.562 µM [inhibitor, full curve, poor fit]
21 | CC1(C)OC(=O)C2(Cc3c(F)cccc3N3CCCC32)C(=O)O1 (stereo unspecified) | inactive
22 | CC1CCc2onc(C(=O)N3CCN(c4ccccc4)CC3)c2C1 (stereo unspecified) | inactive
23 | CCN1CCN(Cc2ccc(NC(=O)c3cc(NC(=O)c4cncc(-c5ccc(C#N)cc5)c4)cc(OC)c3)cc2C(F)(F)F)CC1 | inconclusive: 35.5 µM [inhibitor, single point]
24 | CCSc1nnc(NC(=O)c2ccc3ccccc3n2)s1 | inconclusive: 28.2 µM [inhibitor, single point]
25 | COc1ccc(C(C)(O)c2nc(-c3ccncc3)cs2)cc1 (stereo unspecified) | inconclusive: 5.62 µM [inhibitor, full curve, poor fit]
26 | Cc1ccc(OCCOCCOc2cccc3cccnc23)c(Br)c1 | inactive
27 | C=CCOc1ccc(C2C(C(=O)c3cccs3)=C(O)C(=O)N2c2nnc(C)s2)cc1 (stereo unspecified) | inconclusive: 8.91 µM [inhibitor, partial curve]
28 | Cc1ccccc1Cn1c(CN2CCC(C(=O)NCc3cccnc3)CC2)cc2ccccc21 | inactive
29 | CC(C)n1c(/C=C/c2ccccc2)nc2ccccc21 | inactive
30 | O=C(Nc1nc(NC(=O)c2ccco2)n(-c2ccccc2)n1)c1ccccc1 | inconclusive: 14.1 µM [inhibitor, partial curve, poor fit]
31 | CS(=O)(=O)c1ccc(C(=O)OCC(=O)N2CCOCC2)cc1[N+](=O)[O-] | inconclusive: 35.5 µM [inhibitor, single point]
32 | Cc1c(C)n(Cc2ccccc2)c2ccc(C(=O)NCc3ccccc3F)cc12 | inconclusive: 5.62 µM [inhibitor, full curve]
33 | N#CC1=C(N)OC2=C(CCc3ccccc32)C1c1ccccc1 (stereo unspecified) | inactive
34 | O=C(/C=C(O)/C=C/c1ccc(O)cc1)/C=C/c1ccc(O)cc1 | inconclusive: 35.5 µM [inhibitor, single point]
35 | COc1cc2c(cc1OC)CN(C(=O)c1cc(=O)c3ccccc3o1)CC2 | inconclusive: 2.51 µM [inhibitor, full curve]
36 | Cc1cc(C)cc(NC(=O)Nn2cnnc2)c1 | inactive
37 | Cc1nn(C(=O)c2ccccc2F)c(C)c1S(=O)(=O)N1CCOCC1 | inactive
38 | COc1ccc(C)cc1Nc1n[n+](-c2ccccc2)c(-c2cccc(Cl)c2Cl)s1 | inconclusive: 11.2 µM [inhibitor, single point]

Row | SMILES | Potency
39 | CC(C)CC(OC(=O)c1cccs1)C(=O)NCC1CCCO1 (stereo unspecified) | inactive
40 | Cc1cc(C)c2nc(SCC#N)cc(C)c2c1 | inconclusive: 11.2 µM [inhibitor, single point]
41 | Cc1ccc(S(=O)(=O)N2[C@@H](c3ccc(C(C)(C)C)cc3)C(C(=O)O)=CC[C@H]2c2ccc(Cl)cc2)cc1 | inactive
42 | C=C(C)Cn1c2ccc(NC(=O)CCc3cccc(Cl)c3)cc2c(=O)n1C | inconclusive: 8.91 µM [inhibitor, partial curve]
43 | CCN1CCN(C(c2cccc(F)c2)c2c(O)cc(C)n(CCOC)c2=O)CC1 (stereo unspecified) | inactive
44 | Cc1cc(C(=O)NN=C2CCCCC2)c2ccccc2n1 | inconclusive: 25.1 µM [inhibitor, single point]
45 | O=C(Cc1nc2ccccc2[nH]c1=O)c1ccc(Cl)cc1 | inconclusive: 3.16 µM [inhibitor, full curve]
46 | O=C1CC(c2cc(F)ccc2F)c2cc3c(cc2N1)CCC3 (stereo unspecified) | inconclusive: 2.82 µM [inhibitor, full curve]
47 | Cc1cc2c(cc1C)C(c1ccccc1F)CC(=O)N2 (stereo unspecified) | inconclusive: 17.8 µM [inhibitor, single point]
48 | CCOc1cc(C=NNC(=O)N(c2ccccc2)c2ccccc2)ccc1O | inconclusive: 28.2 µM [inhibitor, single point]
49 | CN(Cc1ccccc1)C(=O)COC(=O)c1cncc(Br)c1 | inactive
50 | O=c1c2ccccc2oc2cc(-c3ccc4[nH]ccc4c3)ccc12 | inconclusive: 1.12 µM [inhibitor, full curve, poor fit]
51 | O=C(N/N=C/c1cccs1)C1COc2ccccc2O1 (stereo unspecified) | inconclusive: 11.2 µM [inhibitor, partial curve]
52 | COc1ccc(C(C)(C)C)cc1NC(=O)COc1ccc(-c2nnco2)cc1 | inactive
53 | CCOC(=O)Nc1ccc2c3c(cccc13)-c1ccccc1-2 | inconclusive: 2.82 µM [inhibitor, full curve, poor fit]
54 | Cc1onc(-c2cccc(Cl)c2Cl)c1C(=O)O/N=C(\N)c1ccc([N+](=O)[O-])o1 | inconclusive: 25.1 µM [inhibitor, single point]
55 | COc1cc(-c2cc3nc(NCCOc4ccccc4)ccn3n2)cc(OC)c1OC | inconclusive: 3.16 µM [inhibitor, single point]
56 | Cc1ccc(OCC(=O)c2cc(C)n(-c3cc(C)on3)c2C)c([N+](=O)[O-])n1 | inconclusive: 35.5 µM [inhibitor, single point]
